Data taken from PubChem BioAssay AID651820 (National Center for Advancing Translational Sciences (NCATS), 2012).
About 12,000 (3.5%) of roughly 340,000 compounds were called active. This list was built around the results that the source calls inconclusive (neither active nor inactive); the mix of calls is not that of the screen. Calls come from the whole dose curve; as a rule, active = well fitted inhibition curve with a large enough effect; inconclusive = small, poorly fitted or top-dose-only effect, or another doubt; inactive = no such curve, though single readings can be large or run the other way. Potencies of inconclusive entries are left out as doubtful fits.

Assay: qHTS Assay for Inhibitors of Hepatitis C Virus (HCV)
Conditions: Huh7.5.1 HCVcc-Cre (HCVcc is cell-culture hepatitis C virus) infection, luciferase reporter, 44 h; activity change, negative = inhibition: at 41.8 µM (top of the series) unless noted
In short: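 Luciferase read-out (15 sec integration) after a 15 min room-temperature substrate step quantifies HCVcc-Cre infection. Cells, 1,000 per well, had compound added 4 h post-plating, then virus at ~0.5 moi, and were cultured 44 h.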
% is set by controls: 0 for no effect and ±100 for the full control effect; potency is the fitted concentration of half-maximal effect; tags give direction and shape of the fitted curve.

Row | Structure (SMILES) | Potency | activity change, negative = inhibition
1 | COc1cccc(CN(C)C(=O)c2ccc(N3CCCC3)c([N+](=O)[O-])c2)c1 | inactive | –
2 | CCCC(C(=O)n1nc(C)cc1C)C(NS(=O)(=O)c1ccc(C)cc1)c1ccccc1 (stereo not given) | inconclusive [inhibitor, single point] | –
3 | CCOP(=O)(c1ccccc1)c1nc(-c2ccccc2C)oc1N1CCCCC1 (stereo not given) | inconclusive [inhibitor, single point] | –
4 | O=c1cc(-c2ccc(O)c(-c3c(O)cc(O)c4c(=O)cc(-c5ccc(O)cc5)oc34)c2)oc2cc(O)cc(O)c12 | inactive | –
5 | CCN(CC)CCCNC(=O)c1ccc(S(=O)(=O)Nc2ccc(C)c(C)c2)cc1 | inconclusive [inhibitor, single point] | –
6 | O=c1c2ccccc2oc2c1ccc1ccccc12 | inconclusive [inhibitor, single point] | –
7 | Cc1ccccc1-c1noc(-c2ccc(O)cc2)n1 | active: 14.1 µM | –
8 | COc1ccc(C2=Cc3ccc(OC(C)=O)cc3OC2)cc1 | inconclusive [inhibitor, single point] | –
9 | CC(=O)N1CCOc2ccc(S(=O)(=O)N(C)c3cccc(C)c3)cc21 | inconclusive [inhibitor, single point] | –
10 | CCOc1ccc2nc(N/C(N)=N/C(=S)Nc3ccc(OC)cc3)nc(C)c2c1 | inconclusive [inhibitor, partial curve] | –
11 | Cc1cc(C)nc(NC(=O)C(c2ccccc2)c2ccccc2)c1 | inconclusive [inhibitor, partial curve] | –
12 | CCc1ccc2[nH]c(C(=O)Nc3ccc(C)c(F)c3)cc2c1 | inactive | –
13 | O=C(c1ccc(N2CCN(C(=O)c3ccc(F)c(F)c3)CC2)cc1)c1cccc(F)c1 | inconclusive [inhibitor, partial curve] | –
14 | CCC(Sc1ncnc2c1c(-c1ccccc1)cn2-c1ccc(OC)cc1)C(=O)OC (stereo not given) | inconclusive [inhibitor, single point] | –
15 | CC(C)C[C@H]1CN=C(N(C)C)N1CCCCc1ccccc1 | inconclusive [inhibitor, partial curve] | –
16 | Nc1cc(=O)[nH]c(SCC(=O)Nc2cccc(Cl)c2)n1 | inconclusive [inhibitor, single point] | –
17 | COc1cc(CCN2C(=O)c3cccc4cccc(c34)C2=O)c(S(=O)(=O)N2CCCCCC2)cc1OC | inconclusive [inhibitor, partial curve] | –
18 | O=C1C(=O)c2c(C(=O)c3ccccc3)coc2-c2ccccc21 | active: 11.2 µM | –
19 | COc1ccccc1Cn1c(=S)[nH]c2cc(C(=O)NCC(OC)OC)ccc2c1=O | inconclusive [inhibitor, partial curve] | –
20 | COc1cc(OC)c(NS(=O)(=O)c2c(C(=O)N3CCCCC3)c(C)n(C)c2C)cc1Cl | inactive | –
21 | Cc1ccc(/C=N/NC(=O)c2cc(C3CC3)nc3ccccc23)o1 | inconclusive [inhibitor, single point] | –
22 | O=C(CC(c1ccccc1)c1ccccc1)Nc1ccc(Cl)cn1 | inconclusive [inhibitor, partial curve] | –
23 | OC[C@H]1O[C@@H](n2cnc3c(NCc4ccco4)ncnc32)[C@H](O)[C@@H]1O | active: 17.8 µM | –
24 | Cc1nc(C)c(C(=O)N2CCCC(C(=O)c3ccc4ccccc4c3)C2)s1 (stereo not given) | inconclusive [inhibitor, single point] | –

Row | Structure (SMILES) | Potency | activity change, negative = inhibition
25 | CCCCC[C@@H]1C=C(C(=O)O)[C@H](c2ccc(OC)c(OC)c2)N1S(=O)(=O)c1ccc(C)cc1 | – | inactive: 29.9% [at 8.37 µM]
26 | Cc1ccc(CCNC(=O)CC(C)CC2=NS(=O)(=O)c3ccccc3N2)cc1 (stereo not given) | inconclusive [inhibitor, single point] | –
27 | C[C@H]1CN=C(N(C)C)N1CC1CCCC1 | inconclusive [inhibitor, single point] | –
28 | COc1ccc(Cl)cc1NC(=O)Nc1cc(C)on1 | inconclusive [inhibitor, single point] | –
29 | CCN(CC)c1ccc(/C=N/NC(=O)c2ccoc2C)c(O)c1 | active: 2.82 µM | –
30 | Cc1ccc(Cn2nc(C)c(C(=O)NCC(c3cccs3)N3CCOCC3)c2Cl)cc1 (stereo not given) | inactive | –
31 | Cc1ccccc1Nc1nc(N)nc(COC(=O)c2ccc(O)cc2)n1 | inactive | –
32 | Cc1cc(C)n(CC2CC(=O)N(c3ccc(Cl)c(Cl)c3)C2=O)n1 (stereo not given) | inconclusive [inhibitor, single point] | –
33 | CCOc1ccc(CCNC(=O)c2sc3nc4n(c(=O)c3c2C)CCC4)cc1 | inactive | –
34 | CCn1cc(Cl)c(C(=O)Nc2ccc(OC)c(OC)c2)n1 | inconclusive [inhibitor, partial curve] | –
35 | Cc1c(Nc2cc(N3CCCC(C)C3)c3nonc3c2[N+](=O)[O-])c(=O)n(-c2ccccc2)n1C (stereo not given) | inconclusive [inhibitor, single point] | –
36 | CNC(=S)N/N=C/c1ccc(-c2ccc(Cl)c([N+](=O)[O-])c2)o1 | inconclusive [inhibitor, single point] | –
37 | COc1ccc(OC)c(-c2csc(NC(=O)Cc3ccccc3)n2)c1 | inconclusive [inhibitor, single point] | –
38 | COC(=O)CSc1nc2c(c(-c3ccco3)c1C#N)CCCC2 | inconclusive [inhibitor, partial curve] | –
39 | CC1(C)CC(=O)C/C(=N/NC(=O)C2CCN(S(=O)(=O)c3cccs3)CC2)C1 | inactive | –
40 | O=C(Nc1nc2ccc(S(=O)(=O)N3CCCC3)cc2s1)C1CCCCC1 | inconclusive [inhibitor, partial curve] | –
41 | Cc1ccc(NC(=S)N2CCN(CCN3C(=O)c4cccc5cccc(c45)C3=O)CC2)cc1 | inconclusive [inhibitor, partial curve] | –
42 | CCOc1ccccc1NC(=O)NC(=O)N(C)S(=O)(=O)c1ccc(C)cc1 | inactive | –
43 | COc1ccc(N(CC(=O)N2CC=C(c3ccccc3)CC2)S(=O)(=O)c2c(C)noc2C)cc1 | inactive | –
44 | Cn1nccc1C(=O)Nc1sc2c(c1C(N)=O)CCCC2 | inactive | –
45 | O=C(c1cc(-c2ccc(Br)cc2)nc2ccccc12)N1CCN(c2ccccc2O)CC1 | inconclusive [inhibitor, single point] | –
46 | O=[N+]([O-])c1cc(Cl)ccc1-c1nc(-c2ccccc2)no1 | inactive | –
47 | COc1ccc(-c2nc(-c3ccc4c(c3)OCO4)[nH]c2-c2ccc(OC)cc2)cc1 | active: 8.91 µM | –
48 | O=C1CC(c2ccc3c(c2)OCO3)Sc2nc3ccccc3n21 (stereo not given) | inactive | –

Row | Structure (SMILES) | Potency | activity change, negative = inhibition
49 | COc1ccccc1C1CCN(Cc2ccc3ccccc3c2)CC1 | inactive | –
50 | CCOc1cc(Br)c(CC(=O)NC2CCCCCC2)cc1OCC | inconclusive [inhibitor, partial curve] | –
51 | Nc1ccc2nn(-c3cccc4ccccc34)nc2c1 | inactive | –
52 | CN(C)C(=O)N1CCN(C(=O)c2ccco2)CC1 | inactive | –
53 | CC(C)(C)NC(=O)C[C@H]1C[C@H](C(=O)N2CCOCC2)[C@@]2(CCC3CCCC3)c3[nH]c4ccc(Cl)cc4c3CCN2C1=O | inconclusive [inhibitor, full curve, poor fit] | –
54 | CCOc1ccc(S(=O)(=O)N2CCN(Cc3ccco3)CC2)cc1 | inactive | –
55 | CCOC(=O)c1cc(CC)sc1NC(=O)c1ccc2c(c1)OCCO2 | inconclusive [inhibitor, full curve] | –
56 | Cc1oc2c(C)c3oc(=O)c(CCC(=O)NCCCN4CCOCC4)c(C)c3cc2c1C | inconclusive [inhibitor, single point] | –
57 | O=C(CNC(=O)c1cccc(Br)c1)N/N=C/c1cn[nH]c1-c1ccccc1 | inactive | –
58 | COc1ccc(OC)c(S(=O)(=O)n2cnc3cc(C)c(C)cc32)c1 | inconclusive [inhibitor, single point] | –
59 | COc1ccc(CNc2nc3ccccc3n2C(C)C)c(O)c1 | inconclusive [inhibitor, full curve] | –
60 | O=C(CC12CC3CC(CC(C3)C1)C2)NC(=S)NCc1ccco1 | inconclusive [inhibitor, partial curve] | –
61 | CCOC(=O)c1ccc(Nc2nc(N3CCOCC3)nc(N3CCOCC3)n2)cc1 | inconclusive [inhibitor, full curve, poor fit] | –
62 | COc1ccc(NC(=S)NNC(=S)Nc2cccc(C(F)(F)F)c2)cc1 | inconclusive [inhibitor, single point] | –
63 | CC(CC(=O)Nc1ncc([N+](=O)[O-])s1)c1ccccc1 (stereo not given) | inconclusive [inhibitor, single point] | –
64 | COc1ccccc1NC(=S)NC(NC(=O)CC(C)C)C(Cl)(Cl)Cl (stereo not given) | inactive | –
65 | CC(C)N(C(=O)CSc1nnc(CSc2ncccn2)n1C)C(C)C | inactive | –
66 | O=C(NC1CCCCC1)C(c1ccncc1)N(Cc1ccc(F)cc1)C(=O)c1ccccn1 (stereo not given) | inactive | –
67 | COc1ccc(/C=C(\C#N)C(=O)Nc2cc(C)c(Cl)cc2OC)cc1O | inconclusive [inhibitor, single point] | –
68 | CCN(CC(=O)Nc1ccc(S(=O)(=O)N2CCCC2)cc1)CC(=O)Nc1ccccc1C(F)(F)F | active: 11.2 µM | –
69 | CCn1ncc(/C=N\NC(=O)c2csc3ccccc23)c1C | inconclusive [inhibitor, partial curve] | –
70 | CCN(CC)C(=O)C1CCCN(C(=O)Nc2ccc3nsnc3c2)C1 (stereo not given) | active: 31.6 µM | –
